Laboratory results: the supplement of paper PMC11417369
Some of the results follow.

System: PfHDP1 homeodomain (GST-tagged)
Experiment: gcPBM binding intensity (ln(normalized median fluorescence intensity)); higher = stronger DNA binding
How it was run: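 After 1 h on an Agilent 4 × 180k array of primer-extended double-stranded 36-bp intergenic genomic probes and negative controls, bound GST-tagged P. falciparum DNA-binding domains were detected with Alexa488 anti-GST antibody and scanned at 488 nm. The domains had been expressed in E. coli, and binding took place in 1× PBS with 1% milk, 0.2 mg/ml BSA, 0.5% salmon testes DNA and 0.03% Triton X-100. Binding intensity is the highest Masliner-normalised natural-log median intensity across replicate spots of either probe orientation.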

Sequence	gcPBM binding intensity (ln)
TATCCTAACTTTAGATGTACACAAATAAAAAAAAAA [XGTACX_site4491]	6.32
AAACAACATATATTAATATGTACATATATATAGATA [GTGCAC_negctrl_site229]	6.58
TTTTTATTGTTATAGTTATAATATATTATTTGATTA [XGTACX_negctrl_site27]	6.41
TTTTTTTTTTTTGTAACACACAATAATATAACATTA [CACACA_site3411]	6.37
AATAATTGTTAAAGCTGTACAATACTTATATAAGAA [XGTACX_site5729]	6.71
CACATATAAATATTAACACACATAATGAGTTATATA [CACACA_site7316]	6.29
TTATTAAGTAAATCACATTTAATTTTTTTTTTTTTT [CACACA_negctrl_site1280]	6.13
TTATACCATATTTATAGTACGTACAAATAAATCAAT [XGTACX_site4975]	6.26
AAGAAAAAAAAAAAAAGTACATGCAATATGGATCTT [XGTACX_site3106]	6.44
AATAATAAAGATCAATGTACATAATAAAAAAAAAAA [XGTACX_site2692]	6.4
TATCATGGGTGTATTTCACACACGGATAATCATTTA [CACACA_site8211]	6.05
AATGTTTATTAACATTGTACTTATAATATGTCACAA [XGTACX_site2974]	6.11
ATATATACAACTAAAGAACACACATCATTGTTCATT [CACACA_site9224]	6.59
AAACAATTTTTTAAAAGTACTTGAAAATTGTGAAAT [XGTACX_site2461]	6.66
AATCATGCTCCGGAAAGTACATAAATAAATAAATAA [XGTACX_site1690]	8.22
GAAAGGACAAGAATAGTGCACATGCAATGTTATTTT [GTGCAC_site9985]	10
ACAAAATTTTTAAGAACACACAAAAATGTACTATCG [CACACA_site2550]	6.22
CACATACACATACAAACACACATTATGTATATATAT [CACACA_site1599]	6.97
AAAAAAAAAAAACATACACACATACATACATATATA [CACACA_site8222]	6.5
CATTTACCCTTATTAACACACAAAATAAAATACGCT [CACACA_site7249]	6.57
AAATAACAAAAGAAGGTGCTCATAAAAATTCATACA [GTGCAC_site9864]	6.29
AAATTATAAAAAAAAAAAAAAAAAAAAAAAAAAAAA [XGTACX_negctrl_site501]	6.2
ATACAATGATATATACATATATATATATATATATAT [TGCATGCA_negctrl_site359]	9.38
AAAAAAAAAAAAAAAAAAAAAAAAAAAAAAAAAAAA [CACACA_negctrl_site204]	7.55
